According to the supplement of paper PMC10126150:
Sequences with one replicate were seen in a single cluster, so their values are uncertain.

System: ATP
Test: switch fluorescence ratio, 500 uM ATP over buffer (Cy3 cluster intensity, sum of 5 cycles each) (fold (ratio)); higher = stronger signal-on switching upon ATP binding; sequences stand for … in TCGTCGGCAGCGTCAGATGTGTATAAGAGACAGTTTTTTTTTTTTTTTTTTTTTTTTT…TC
Conditions: aptamer strand: ATP DNA aptamer (quencher-CACCTGGGGGAGTATTGCGGAGGAAGG + anchor), 100 nM annealed; ATP concentration: 500 uM; one replicate
Method in brief: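 Cy3-labelled switching-strand clusters on a modified Illumina MiSeq flow-cell were annealed to 100 nM quencher-labelled ATP aptamer, imaged in selection buffer, then imaged after 15 min with 500 uM ATP at 22 °C. Five buffer/ATP cycles ran, with NaOH stripping and re-annealing between them. The fluorescence ratio is summed target-cycle over summed buffer-cycle Cy3 intensity per cluster, averaged per switch-domain sequence. Clusters outside 100-1000 RFU were excluded.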
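Further: ATP exposure 15 min at 22 °C before imaging.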

| Sequence | switch fluorescence ratio |
| --- | --- |
| TGATACACCG | 1.04 |
| CCGTCTCGGG | 1.01 |
| GGGAACGGCA | 0.992 |
| AGGGTTCGTT | 1.01 |
| AGAGTAAACG | 0.959 |
| TTTGGCCTCC | 1.03 |
| TCTCGGAAAT | 1.34 |
| ATGATCCACC | 1.1 |
| AGACCATCGA | 0.951 |
| AGGGGTCAAG | 0.97 |
| TCAAGGTTGC | 0.981 |
| TTCCTGCGG | 1.1 |
| TTATAGAGAT | 0.99 |
| CAGATCCGAC | 1.1 |
| TGGCTACGCC | 1.41 |
| ACGTAGGGCC | 1 |
| TCGTCTCCTA | 0.997 |
| TACTCATTTT | 0.969 |
| ACCGCTGCGT | 1.05 |
| TAAAATGAA | 0.994 |
| AACTCTCTGC | 1.06 |
| AGGTGCCTAC | 1.03 |
| GGGTGCAGTT | 0.97 |
| CCTGGTGTAA | 1.08 |
| AAACTACGAT | 1.12 |
| TCATAAAAGT | 1.04 |

| Sequence | switch fluorescence ratio |
| --- | --- |
| AAGAAAGCAA | 0.923 |
| TCCGAGTAGA | 0.999 |
| CATAGACGGA | 1.04 |
| TGTCCACATA | 1.08 |
| CATAAGATTT | 1.06 |
| GCGCCATAGG | 1.03 |
| CTAAATTATA | 0.975 |
| TCATTTTTAG | 1 |
| CGATGCGGCG | 1.03 |
| CCTTGGAAGG | 1.01 |
| GACCCGCCTG | 1.01 |
| CGGCCGCCTA | 1.05 |
| TGATGGTAGA | 0.964 |
| TCGAGGGTGC | 0.947 |
| TAATGAGGAT | 0.997 |
| TCGTTGGTAG | 0.981 |
| TGGATCAGTC | 0.969 |
| GGCGGTAACA | 0.987 |
| AAAGCCGATA | 1.07 |
| CAGCTGTTGA | 1.04 |
| GCGGATCCGC | 1.01 |
| CGACGGGTTG | 0.944 |
| AATAGAGGCA | 1.06 |
| TTAGCTTTGG | 0.967 |
| CAATTACTAC | 1.1 |
| CGGTGGGGC | 1.03 |

| Sequence | switch fluorescence ratio |
| --- | --- |
| TCAAACGGTA | 1.1 |
| ATAGGCAGGT | 1.02 |
| TAGTGGCCCA | 0.98 |
| CACCGTGGGG | 1.02 |
| GGCACAACTT | 1 |
| ATCACTTCTG | 1.03 |
| GATGCTTGAA | 1.08 |
| TCAGAACCGG | 0.985 |
| TGACAGGTAC | 1.18 |
| CGTTAGGGTG | 1.03 |
| GTATCGAGGC | 1.08 |
| CGTACTGCAG | 1.16 |
| TAAGGAGGGT | 0.994 |
| TTTGCAGTGC | 1.4 |
| CGTTGCGGGT | 0.999 |
| GGGGATCTGC | 1.05 |
| CGCTGGTTCT | 0.983 |
| CTGACTTGGA | 0.993 |
| GCGGCAGCAT | 0.994 |
| CATGAGATGC | 1.05 |
| TAGATGCATC | 0.991 |
| TTTTGGCCT | 1.03 |
| AATCTGCATC | 1.71 |
| ATCGGGATTG | 0.995 |
| GTTCGGGAG | 1.02 |
| ATTTCCGGGA | 1.03 |

| Sequence | switch fluorescence ratio |
| --- | --- |
| CGATCGAGTC | 0.987 |
| TCGGACATT | 1.1 |
| GCTTATCTT | 0.982 |
| GGGGCTAACC | 1.05 |
| CAGTGTTGTC | 1.03 |
| AACAGGGCTT | 1 |
| ATAACGCCAA | 1.3 |
| TGAACTGAAC | 1.24 |
| GCTGACCCGG | 1.03 |
| CGGTGATATA | 0.986 |
| GTGTAGCAAG | 1.09 |
| CTCATATCGG | 1.03 |
| GCGTATGAGG | 0.983 |
| ACAAATACAG | 1.06 |
| ATTAGCCAGA | 0.966 |
| TGGGACCCCT | 0.998 |
| CGCTAGGCCG | 1.01 |
| TTCGCCTTTA | 0.99 |
| TGCTTGCTTG | 0.992 |
| CTATGATAGA | 1.01 |
| GCGTGGACTT | 1.03 |
| ACCCAGCGGT | 1.03 |
| CTATACTATT | 0.97 |
| GGTGTTCGTC | 0.983 |
| GATCATTTCT | 0.961 |
| TCGTACTTCT | 1.01 |

| Sequence | switch fluorescence ratio |
| --- | --- |
| CAGTCTTATA | 1.01 |
| TATTCGTTG | 0.96 |
| TGCATTAGTG | 0.984 |
| AATCGCACAG | 1.08 |
| GTCAGTATTT | 0.992 |
| ACTATATGCG | 1.06 |
| CAGCATCGAG | 1.13 |
| GGGTTCAGGA | 0.974 |
| TTAACGTCTC | 0.996 |
| CGCTTTGATT | 1.01 |
| ACTCGAACGA | 1.07 |
| ATCAACCAGA | 1.03 |
| GCGTGGTAAC | 0.924 |
| CAAGTGTATT | 0.999 |
| GGCTGGATTA | 1.01 |
| CTGGAAAGCG | 0.986 |
| TTTTAAATAC | 1.21 |
| TAAGTGTGGG | 0.981 |
| GGCCGATGGA | 0.996 |
| ATGCCAGCTG | 0.978 |
| ATAGAGTGTG | 0.979 |
| TGCTCGCAGG | 1.13 |
| CTCAGGGGAT | 1.1 |
| TAACGAGCAG | 1.02 |
| AGCCCGGGCT | 0.984 |
| TGCAATCCCG | 1.17 |

| Sequence | switch fluorescence ratio |
| --- | --- |
| CGCTATGGT | 1.16 |
| AGGAGTGGAC | 0.974 |
| GCCCTGGACT | 0.944 |
| CATCTATGCT | 1.01 |
| CAAGTAATTT | 1.04 |
| AGGCTGGCAG | 0.955 |
| GGATTAGCTA | 1.03 |
| TTGCTGGGTT | 0.938 |
| TCGATTTCAG | 0.996 |
| GAGGTTTTAA | 0.962 |
| GTAGGTTGGA | 1 |
| GCAAATACA | 1.07 |
| GATTGTTTCA | 0.985 |
| CCAATTTACA | 1.52 |
| AATTCGATTA | 0.999 |
| CCGGGCAAGG | 3.4 |
| GCCATCAGC | 1.03 |
| TTGACCCCGC | 1.11 |
| ATTACTCACG | 1.46 |
| TATTAAAGC | 1.02 |
| CACGCCAGAC | 4.36 |
| TGATAGAGTT | 0.999 |
| AGGACAGAGT | 0.955 |
| CAGATAGCAA | 2.76 |
| GGCCTTTAAA | 1.06 |
| CGCCGCAACG | 1.08 |

| Sequence | switch fluorescence ratio |
| --- | --- |
| GGAGGTTACG | 0.992 |
| TGCGCATAGC | 1.19 |
| GGATTCGCGT | 1.03 |
| GAATGTAACA | 1.02 |
| TGGTTTATGT | 1.01 |
| TACTGGGA | 1.53 |
| ACGGCACGG | 1.48 |
| ATATTCACC | 1.06 |
| ATGAGGCATG | 1.03 |
| GAGTTCTCGA | 0.976 |
| CGTTGGGAAA | 0.962 |
| AATGAGCCGA | 1.04 |
| TATTTGAGC | 0.995 |
| TGACGGTCGG | 0.997 |
| TTGTACA | 1.02 |
| CTGTCAATCC | 2.58 |
| TATAGAAAAC | 0.995 |
| GTGGTGAGCA | 1.02 |
| GGGCGAGAAA | 1.01 |
| GGAACCGGTG | 1 |
| TTTGGTGACA | 0.993 |
| CGCGCCCCAA | 1.21 |
| GCTAGCGCGC | 0.982 |
| GCGTGAGCTT | 1.05 |
| TTTGTTAT | 1.01 |
| CCACACTAAG | 1.08 |

| Sequence | switch fluorescence ratio |
| --- | --- |
| TGCCGCAT | 1.13 |
| AACTACCCCG | 1.3 |
| TAACACGGGG | 1.07 |
| GCTATAGTAG | 0.985 |
| CGAGAAGTT | 1.03 |
| GTTGACTGAG | 1.04 |
| AGGCTGTTGG | 1.03 |
| ACTCTATGAG | 0.93 |
| GAGAAATGT | 1.02 |
| AGAATCGCCA | 0.944 |
| GCCGGCCCAT | 0.996 |
| GGTAGGGGCT | 0.959 |
| CTTTTCTTTT | 1.02 |
| ATCTACGCTT | 1.38 |
| GCAGGGGTGA | 1.03 |
| ATGTCCTGG | 0.973 |
| ATCACGCAAT | 5.59 |
| CTTGTTGTT | 0.979 |
| TTTAAGCGAC | 1.85 |
